Data reported in PubChem BioAssay AID588855 (National Center for Advancing Translational Sciences (NCATS), 2011).
In all, about 410,000 compounds went through this assay and about 5,000 (1.2%) were called active. Inconclusive means that the source gave no clear call. Such entries were picked first, then a sample of the others. Calls follow the shape of the dose curve; as a rule, active = well fitted inhibition curve with a large enough effect; inconclusive = small, poorly fitted or top-dose-only effect; inactive = no such curve, though single readings can be large or run the other way. A potency beside an inconclusive call is a rough fit, not a confirmed value.

Assay: qHTS for Inhibitors of TGF-b; also: nearly all actives have a fitted effect of over 65% in size
Conditions: HepG2 CAGA-GFP TGF-b/SMAD3 reporter, GFP fluorescence, 18 h, TGF-beta stimulated, 500 pg/mL final; series mostly up to 46.1 µM; activity, negative = inhibition: at the top concentration
In short: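 First, reporter cells (HEPG2 CAGA-GFP) rested 2 h at 37 degrees C. Next, compounds were pinned in and TGF-beta added to 500 pg/mL final. After 18 h, GFP was imaged per cell and summed per well.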
% is scaled to controls: 0 for no effect and ±100 for the full control effect; potency is read from the fitted curve at half-maximal effect; tags tell the direction and shape of the fitted curve.

Compound | Potency | activity, negative = inhibition
COc1ccccc1OCCCn1cc(C=O)c2ccccc21 | inconclusive: 35.5 µM [inhibitor, single point] | 
CC(C)CC(N)c1csc(NC(=O)Nc2ccccc2-c2ccccc2)n1 (stereo not given) | inconclusive: 22.4 µM [inhibitor, single point] | 
Cc1ccc(OP2(=O)Nc3cc(C)c(C)cc3S2)cc1 (stereo not given) | inconclusive: 35.5 µM [inhibitor, single point] | 
Oc1ccc(Cl)cc1Sc1cc(Cl)ccc1O | active: 8.91 µM | 
Cc1ccc(S(=O)(=O)N2CC3CC(C2)c2cccc(=O)n2C3)cc1 (stereo not given) |  | inactive: 17.6%
O=C1NC2C(O)C(O)C(O)C(O)C2c2cc3c(c(O)c21)OCO3 (stereo not given) | active: 0.126 µM | 
COc1cc2c(cc1OC)[C@H]1C(=O)c3ccc4c(c3O[C@H]1CO2)C[C@@H](C(C)(C)O)O4 | inconclusive: 12.6 µM [inhibitor, partial curve, poor fit] | 
COC(=O)C1=C(c2ccc(OCc3ccccc3)cc2)C[C@@H]2CC[C@H]1N2C(=O)NCc1ccc(Cl)cc1 | inconclusive: 6.31 µM [inhibitor, single point] | 
CCCCCc1cc(O)c2c3c(c(=O)oc2c1)CN(C)CC3 | inconclusive: 20 µM [inhibitor, single point] | 
CC1(C)C(C(=O)NCc2ccco2)C1(C)C | inconclusive: 3.98 µM [inhibitor, full curve, poor fit] | 
NC(Cc1ccc(F)cc1)c1csc(Nc2ccccn2)n1 (stereo not given) | inconclusive: 25.1 µM [inhibitor, single point] | 
CN1CCC(N(C)c2nc(-c3ccc([N+](=O)[O-])cc3)nc3ccccc23)CC1 | inconclusive: 25.1 µM [inhibitor, single point] | 
COc1cccc(OC)c1-c1nn2c(-c3n[nH]c4c3CCC4)nnc2s1 | inconclusive: 35.5 µM [inhibitor, single point] | 
OC1(c2ccc(Cl)cc2)CCN(Cc2c[nH]c3ccccc23)CC1 | inconclusive: 35.5 µM [inhibitor, single point] | 
Cc1cccc2c1=NC(=O)/C(=C/c1c(O)[nH]c(=O)[nH]c1=O)C=2 |  | inactive: 1.03%
COC(=O)C(O)(c1cn(C)c2ccccc12)C(F)(F)F (stereo not given) | inconclusive: 5.01 µM [inhibitor, full curve, poor fit] | 
COC(=O)C1=C(c2ccc(F)cc2OCc2ccccc2)C[C@@H]2CC[C@H]1N2C(=O)N1CCC(O)CC1 | inconclusive: 0.447 µM [inhibitor, full curve, poor fit] | 
COC(=O)C1=C(c2ccc3ccccc3c2)C[C@@H]2CC[C@H]1N2C(=O)NCc1ccc(C(F)(F)F)cc1 | inconclusive: 35.5 µM [inhibitor, single point] | 
CCOc1cccc(=NC2CCCCC2)c2c(C)n(C)c(C)c12 | active: 10 µM | 
CC12CCC(=O)C=C1CC(N1CC1)C1C2CCC2(C)C(O)CCC12 (stereo not given) |  | inactive: 6.37%

Compound | Potency | activity, negative = inhibition
O=C(c1ccc2c(c1)ncn2C1CCCCC1)N1CCC2(CC1)OCCO2 |  | inactive: 16.8%
C[C@@H]1CN([C@H](C)CO)C(=O)CCCn2nncc2CO[C@@H]1CN(C)C(=O)Oc1ccc2ccccc2c1 |  | inactive: 5.3%
COc1ccc(N2CCN(c3ncnc4c3nc3n4CCCCC3)CC2)cc1 | inconclusive: 3.16 µM [inhibitor, partial curve, poor fit] | 
COC(=O)C1=C(c2cc3ccccc3s2)C[C@@H]2CC[C@H]1N2C(=O)N1CCOCC1 | inconclusive: 11.2 µM [inhibitor, single point] | 
Cc1ccc(OC(=O)c2ccc(Br)o2)cc1 | inconclusive: 0.112 µM [inhibitor, full curve, poor fit] | 
Cc1cccc(-c2nc3ccc(C(=O)N4CCC5(CC4)OCCO5)cc3nc2-c2cccc(C)c2)c1 | inconclusive: 35.5 µM [inhibitor, single point] | 
Cc1c(Cl)cccc1NC(=O)CN1C(=O)C(C)N=C(c2ccccc2)c2ccccc21 (stereo not given) |  | inactive: -10.2%
COc1ccc(CN2C(=O)NC(=O)/C(=C/c3ccc([N+](=O)[O-])s3)C2=O)cc1 | inconclusive: 10 µM [inhibitor, partial curve, poor fit] | 
COC(=O)C1=C(c2ccc(F)cc2OCc2ccccc2)C[C@@H]2CC[C@H]1N2C(=O)NCCOc1ccc(OC)cc1 | inconclusive: 35.5 µM [inhibitor, single point] | 
CCc1nc(CNC(=O)c2cc(OC)c(OC)c(OC)c2)no1 | inconclusive: 3.55 µM [inhibitor, single point] | 
CCN(CC)S(=O)(=O)c1ccc(NN=C(C#N)C#N)cc1 | inconclusive: 22.4 µM [inhibitor, single point] | 
CC(C)(C)n1ncc2c(=O)n(Cc3cccc(Cn4cnc5c(cnn5C(C)(C)C)c4=O)c3F)cnc21 | inconclusive: 25.1 µM [inhibitor, single point] | 
O=C(NCCCl)Nc1ccccc1NS(=O)(=O)c1cccs1 | inconclusive: 31.6 µM [inhibitor, single point] | 
Cc1ccc(Sc2ccc(N3CCCC(C(=O)Nc4ccc(Cl)cc4)C3)nn2)cc1 (stereo not given) | inconclusive: 7.08 µM [inhibitor, partial curve] | 
CC1Oc2cc3c(-c4c(O)cc(O)c5c(O)c6c(cc45)OC(C)C(C)C6=O)c(O)cc(O)c3c(O)c2C(=O)C1C (stereo not given) | active: 14.1 µM | 
O=C(Nc1ccc(Cl)cc1C(=O)c1ccccc1)c1ccccc1Br | inconclusive: 35.5 µM [inhibitor, single point] | 
CC(C)OCCCNC(=O)c1c(N)n(CC2CCCO2)c2nc3ccccc3nc12 (stereo not given) | inconclusive: 20 µM [inhibitor, single point] | 
O=c1nc(/C=C/c2ccc(Cl)cc2Cl)cc(C(F)(F)F)[nH]1 | active: 15.8 µM | 
Cc1ccc(NC(=O)C2CCCN2S(=O)(=O)c2ccc3c(c2)CCCC(=O)N3)cc1Cl (stereo not given) | inconclusive: 1.26 µM [inhibitor, partial curve, poor fit] | 
Fc1ccc(CN2CCN(c3ccc(Cl)cc3)CC2)cc1 | inconclusive: 35.5 µM [inhibitor, single point] | 
